Laboratory results: the supplement of paper PMC11417369
The list shows a part of the results.

System: PfSIP2 AP2 domain 1 (GST-tagged)
Experiment: gcPBM binding intensity (ln(normalized median fluorescence intensity)); higher = stronger DNA binding
Procedure, shortened: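 Binding intensity values are the highest Masliner-normalised natural-log median intensity among replicate spots of either probe orientation. The binding step lasted 1 h in 1× PBS with 1% milk, 0.2 mg/ml BSA, 0.5% salmon testes DNA and 0.03% Triton X-100, using GST-tagged P. falciparum DNA-binding domains expressed in E. coli on an Agilent 4 × 180k array of primer-extended double-stranded 36-bp intergenic genomic probes plus negative controls. Alexa488 anti-GST antibody and a 488 nm scan detected bound protein.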

Row | Sequence | gcPBM binding intensity (ln)
1 | TAAATACTTCGTAAAACACACAAGTAGAAAAAAAAA [CACACA_site360] | 6.9
2 | ATTAATTATATATATACACACACATACACCCAAATA [CACACA_site9126] | 7.39
3 | AAAAATATAATATATGCACACATACATACATATATA [CACACA_site7915] | 7.07
4 | ATAATTAGTTCAATTTTTTTTTTTTTTTTTTTTTTT [CACACA_negctrl_site1371] | 8.44
5 | TTATTTATTTATTGTTGTACACAAAATGATTCTTAA [XGTACX_site6480] | 7.37
6 | AAACAAAACAAAACATGTACACATTATATATATATA [XGTACX_site3374] | 9.55
7 | AAATAAAATTATAATACATGCATACATACATATATA [TGCATGCA_site69] | 6.87
8 | TATAAATACATACGTACACACAAATATTAAAATATA [CACACA_site5129] | 7.35
9 | ATGTTACTCAGACACACACACATAAAAAAACAAAAA [CACACA_site3249] | 7.31
10 | TGTGTTAATATATGAAGTACACAATACACACTAATT [XGTACX_site5469] | 7.23
11 | TAATATCATTTATGGGGTACCTCCTATTCTTATTTA [XGTACX_site1839] | 6.69
12 | CGAACTGCACTTTTTAGTACTTAATAATTATTTTTT [XGTACX_site2446] | 8.47
13 | TCATATGTTAAATGATGTACATTTAATATAAATAAA [XGTACX_site900] | 6.84
14 | AAAAAAAACATCCTCACACATATATATATATATATA [CACACA_site5166] | 9.26
15 | AATAAAGGAAATAAATAATTTATTTTGTAAAATATG [CACACA_negctrl_site97] | 6.99
16 | ATATATATGAATACATGTACGTATTTGTCTATGTAT [XGTACX_site8306] | 7.07
17 | CAATGTTAACATATTACACACATATGTATTTATAAT [CACACA_site5512] | 7.09
18 | GCATATATTATATATTTATTTATTTTTTTTTTTTAA [GTGCAC_negctrl_site193] | 6.89
19 | TAAATTACATGAAATTGTACATGAATATTAAATATA [XGTACX_site3909] | 6.92

Row | Sequence | gcPBM binding intensity (ln)
20 | ATATATACAAAGGATTAACACACATATTATTATATA [CACACA_site8563] | 6.95
21 | TTCGTTATAATTGAATTTACAATATGCTTTATAATG [XGTACX_negctrl_site238] | 6.78
22 | AAAATATTTATATTTACACACACATAATACATATAT [CACACA_site32] | 7.01
23 | GTGTACAGTTTTTGCACACATATAAATAAAAAAAAG [CACACA_site3599] | 7.48
24 | TACATATTTTTTATGTGTACATATTTTTTATGTGTG [XGTACX_site444] | 7.32
25 | TTCTTTTTTCTTTATGGTACGTGTAATATATATCAA [XGTACX_site7960] | 7.57
26 | CCCAATAATTAAACAACACACATATATATATGTAAT [CACACA_site3084] | 6.95
27 | ATAAAATACAGATAAACACACATATAAACACCCATA [CACACA_site5381] | 7.17
28 | CTTTATTTTTTATACACACACAATATGTATAAATAT [CACACA_site7638] | 7.26
29 | TTTATAAAATTATTTGCATGTAACAATTATAAATTG [TGCATGCA_site1026] | 6.69
30 | TTTTTTTTTCTTTCTCTTTAAATATTAATTAAAAAA [GTGCAC_negctrl_site90] | 6.86
31 | AAAATATAAATATATTGTACTGTTATATAATAAAAT [XGTACX_site2132] | 7.04
32 | AATGTGAAATATAAATGTACATAAATATATATATAT [XGTACX_site8710] | 9.07
33 | TAACTATCATGTATTACACACAATATTTATTATAGA [CACACA_site7301] | 6.95
34 | TAAAAAAAAATAAATACATGCATATAATACATTATA [TGCATGCA_site518] | 6.77
35 | TAATGAGGAAAAAGTGTGTTAAGATTTTATAATTTA [GTGCAC_negctrl_site608] | 6.59
36 | TGAACATGTTAAAATAAACACACAGCTAAGGTTTTT [CACACA_site7934] | 6.62
37 | ATATATATATTAACAATACACACGTGTATACCTTAT [CACACA_site2217] | 8.63
38 | TATCATATAAATACATGTACATATTTGGAAAATAAT [XGTACX_site5373] | 6.96

Row | Sequence | gcPBM binding intensity (ln)
39 | CATCATAGCATTCCTCGTACAAATATAAACATATCA [XGTACX_site2711] | 7.25
40 | TAGTAAATAACAAAAGGAAAAATTAATGAGGCAAAA [TGCATGCA_negctrl_site526] | 6.85
41 | CATATACACGAACACACACACATATATATATATATA [CACACA_site4437] | 9.85
42 | ATGTTTTGTAAAATGATTAAATATTAAGATTCAATA [CACACA_negctrl_site1743] | 6.7
43 | CTTAGAGTATTTAAATGTACACGTTTGTATATGTAT [XGTACX_site1767] | 6.95
44 | ATAAATAAATACATATGTACATATATATATATATAT [XGTACX_site7145] | 9.53
45 | TCAGTTAATGTATATGTACACACGGGGTGTATATAT [CACACA_site9103] | 6.9
46 | ATATATATATTAAGGGGTACGTAAAAAATTGGGAAG [XGTACX_site7322] | 8.31
47 | AAATTATATCCCCTTTGTACTTACAGATCTTTATAC [XGTACX_site8163] | 7.04
48 | AGTGTATTTTTATGTTGTACATGTAATATTTTTGAT [XGTACX_site541] | 7.08
49 | TATATAATATATTAATGTACGTTATATGTATTCCTT [XGTACX_site6140] | 6.97
50 | CTTTTTTTTTAAATATCACACACATATAATATATTC [CACACA_site9222] | 7.01
51 | TAATTCATCATATGCACACACAATACCAAAATGTGC [CACACA_site191] | 7.29
52 | TACAGATATTCATATAAACACACATACAAATTATGT [CACACA_site7929] | 6.96
53 | TATGTGGCACAAAAGGGTACATATAATTTATACAGG [XGTACX_site5499] | 7.16
54 | AAACAGAATGCATATACACACATACAAAAAAGTGCA [CACACA_site6591] | 8.49
55 | TGTGTACCGATATTAAGTTTAACGTTATAAAAATAT [CACACA_negctrl_site1547] | 6.84
56 | TTTCTAAACCGGTACAGTACATATAAAAATAGAATA [XGTACX_site6662] | 7.27
